Out of some 76,000 compounds screened, about 1,900 (2.5%) were called active. The inconclusive results got no clear call from the source; some entries with a clear call stand among them for comparison. The call rests on the fitted dose curve; in most records, active means well fitted inhibition curve with a large enough effect; inconclusive means small, poorly fitted or top-dose-only effect; inactive means flat fitted curve, though single readings scatter. Where the call is inconclusive, the potency comes from a doubtful curve fit.
molecular target: Luciferin 4-monooxygenase (Photinus pyralis) (UniProt P08659); experiment: Firefly luciferase inhibition profiling of diverse chemical library using quantitative high-throughput screening; further: nearly all actives have a fitted effect of over 65% in size; settings: purified P. pyralis luciferase, luminescence, biochemical; activity change, negative = inhibition: at 115 µM (top of the series) unless noted
How it was run: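 Purified 10nM P. pyralis luciferase with 10uM D-luciferin and 10uM ATP in 50mM Tris acetate pH 7.5, 10mM Mg acetate, 0.01% Tween-20, 0.05% BSA. qHTS titration; luminescence read by CCD imager.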
On the % scale 0 is the no-effect control and ±100 the full control effect; potency means the concentration at half of the fitted maximal effect; tags describe the fitted curve by direction and shape.

Chain of UniProt P08659 (P08659 whole entry, looked up): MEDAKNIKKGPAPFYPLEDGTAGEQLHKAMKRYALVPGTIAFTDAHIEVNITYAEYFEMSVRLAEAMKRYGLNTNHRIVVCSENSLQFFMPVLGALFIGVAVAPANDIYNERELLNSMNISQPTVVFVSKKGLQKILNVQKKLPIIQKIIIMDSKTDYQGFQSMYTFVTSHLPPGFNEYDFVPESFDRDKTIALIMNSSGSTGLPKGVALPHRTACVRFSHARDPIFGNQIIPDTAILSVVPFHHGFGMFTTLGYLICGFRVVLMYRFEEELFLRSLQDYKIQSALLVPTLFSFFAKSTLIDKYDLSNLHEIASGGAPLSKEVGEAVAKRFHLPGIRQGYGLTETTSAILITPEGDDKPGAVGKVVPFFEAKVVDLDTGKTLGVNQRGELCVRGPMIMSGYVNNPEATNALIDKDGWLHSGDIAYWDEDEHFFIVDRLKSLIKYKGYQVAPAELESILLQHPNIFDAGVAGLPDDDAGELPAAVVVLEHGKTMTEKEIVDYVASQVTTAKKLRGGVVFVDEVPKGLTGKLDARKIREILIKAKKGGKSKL

Row | Structure (SMILES) | activity change, negative = inhibition | Potency
1 | CN(C)[S+](=O)([O-])c1ccc2c(c1)OCCN(Cc1ccc(C(F)(F)F)cc1)C2 | inactive: -6.28% [at 172 µM] | 
2 | CCC1(N2CCN(C(=O)Nc3cccc(F)c3C)CC2)CCN(C(=O)C(C)C)C1 (stereo not given) |  | inconclusive: 50.1 µM [inhibitor, partial curve]
3 | COCCN1CC2(CCCN(C(=O)Nc3ccc4c(c3)OCO4)C2)CCC1=O (stereo not given) |  | inconclusive: 79.4 µM [inhibitor, single point]
4 | COc1ccc(-c2cc(N3CCCC(NC(=O)c4cccc(F)c4)C3)n[nH]2)cc1 (stereo not given) |  | inconclusive: 11.2 µM [inhibitor, full curve]
5 | O=C(Nc1cccc(F)c1)N1CCC(O)(c2csc(CN3CCOCC3)n2)CC1 |  | inconclusive: 89.1 µM [inhibitor, partial curve]
6 | Cc1cnc(C2CCN(C(=O)Nc3ccccc3F)C2)n1C(C)C (stereo not given) |  | inconclusive: 44.7 µM [inhibitor, partial curve, poor fit]
7 | O=C(O)C[C@@H]1CCN(C(=O)NC2CCCCC2)C[C@@H]1CCN1CCCCC1 | inactive: 1.04% [at 172 µM] | 
8 | COCC(=O)N(C)Cc1ccc(-c2ccccc2)cc1 |  | inconclusive: 112 µM [inhibitor, partial curve]
9 | Cc1cc(C)c(CNC(=O)c2nc(-c3cccc(O)c3)cc3[nH]ccc23)c(=O)[nH]1 |  | inconclusive: 70.8 µM [inhibitor, partial curve]
10 | C[S+](=O)([O-])CCn1ncc2cc(OCc3cccc(-c4cncnc4)c3)ccc21 |  | active: 35.5 µM
11 | Cc1ccsc1C(=O)Nc1ccc2c(N3CCCCC3)ncnc2c1 |  | inconclusive: 50.1 µM [inhibitor, partial curve]
12 | COC1CCOC2(CCN(C(=O)NCCc3ccccc3)CC2)C1 (stereo not given) |  | active: 28.2 µM
13 | O=C([C@@H]1C[C@@H](O)[C@H](O)[C@@H]2NC(=S)N(c3ccc(F)cc3)[C@@H]21)N1CCCCC1 |  | inconclusive: 50.1 µM [inhibitor, partial curve, poor fit]
14 | Cc1ccc(NC(=O)N2CCC(CCNC(=O)CCc3ccccc3)CC2)cc1F | inactive: -21.5% | 
15 | CC(c1cccs1)N(C)C(=O)Nc1ccc(Cl)cc1 (stereo not given) |  | active: 44.7 µM
16 | COc1ccc(NC(=O)c2ccc3c(c2)OCC(=O)N(Cc2cnn(C)c2)C3)c(F)c1 |  | inconclusive: 70.8 µM [inhibitor, partial curve]
17 | C[S+](=O)([O-])CCn1ncc2cc(OCc3cccc(-c4cccc(F)c4)c3)ccc21 |  | inconclusive: 28.2 µM [inhibitor, full curve, poor fit]
18 | CCCN(C)c1nccnc1OC1CCN(C(=O)C2CC2)C1 (stereo not given) |  | active: 39.8 µM
19 | COc1ccc(Nc2cc3c(cn2)CN(CCc2ccccc2)CCN3)cc1 |  | inconclusive: 126 µM [inhibitor, partial curve, poor fit]
20 | CC1(C)C(=O)N(CCOc2ccccc2)[C@H]2CN(Cc3ccc4c(c3)CCO4)C[C@@H]2[S+]1(=O)[O-] | inactive: -6.89% | 
21 | O=C(Cc1ccccc1)Nc1ccc([C@H]2OCC(=O)N[C@@H]2CO)cc1 | inactive: -9.88% [at 172 µM] | 
22 | COCCNC(=O)[C@@H]1C[C@H](Oc2ccccc2)CN1C(=O)c1ccc(OC)nc1OC | inactive: -12.3% | 

Row | Structure (SMILES) | activity change, negative = inhibition | Potency
23 | CCNC(=O)N[C@@H]1C=C[C@@H](c2c(C)nn(-c3ccccc3[N+](=O)[O-])c2C)C1 |  | inconclusive: 89.1 µM [inhibitor, partial curve]
24 | CC(C)CCC(=O)N1CCN(c2nc3c(s2)CN(C)CC3)CC1 |  | inconclusive: 50.1 µM [inhibitor, partial curve]
25 | COc1cccc(NC(=O)Nc2cccc(-c3ccc(N4CCOCC4)nn3)c2)c1 |  | active: 1 µM
26 | COc1cccc(CN2CC[C@@]3(O)CCNC[C@H]3C2)c1OCCCn1ccnc1 | inactive: 9.81% | 
27 | O=C(c1nc2ccccc2[nH]1)N1CCNc2cnc(Nc3ccc(-n4ccnc4)cc3)nc2C1 |  | inconclusive: 79.4 µM [inhibitor, single point]
28 | Cc1csc(S(=O)(=O)N2CCCC3(CCC(=O)N(CC4CC4)C3)C2)c1 (stereo not given) | inactive: -8.55% | 
29 | CN1[C@@H](CCC(=O)NCc2cccs2)CNC(=O)[C@@H]2[C@H]1CCN2Cc1ccc(O)cc1 | inactive: 9.26% [at 172 µM] | 
30 | CC1Oc2ccc(NC(=O)NCc3ccccc3)cc2CN(C2CCCc3ccccc32)C1=O (stereo not given) | inactive: -9.09% | 
31 | CCCCCC(=O)Nc1nc2c(s1)C[C@@H]1[C@](C)(CO)[C@H](O)CC[C@@]1(C)[C@@H]2CC(=O)Nc1cccc(O)c1 | inactive: -3.3% | 
32 | O=C(N[C@H]1[C@H](O)[C@H](O)C[C@@H]1c1ccc(C(F)(F)F)cc1)c1ccc2c(c1)OCCO2 |  | inconclusive: 63.1 µM [inhibitor, partial curve]
33 | Cc1nn2c(c1-c1ccccc1Oc1ccccc1)N(Cc1cccc(C(=O)O)c1)CCC2 |  | inconclusive: 100 µM [inhibitor, partial curve]
34 | COc1cccc(CNC(=O)C2CCN(C(=O)c3nnn4c3COC(c3ccc(C)cc3)C4)CC2)c1 (stereo not given) |  | inconclusive: 56.2 µM [inhibitor, partial curve]
35 | FC(F)(F)c1ccc2nc([C@H]3CCN(Cc4ccc(Cl)cc4)C3)[nH]c2c1 |  | inconclusive: 70.8 µM [inhibitor, partial curve]
36 | CCOc1ccc(NC(=O)N2CCc3cc(OC)c(OC)cc3C2CNC(=O)c2ccco2)cc1 (stereo not given) |  | inconclusive: 50.1 µM [inhibitor, partial curve]
37 | Cn1cc(C(=O)NCC2CN([S+](=O)([O-])c3ccccc3Cl)CC23CN(c2ccccc2)C3)cn1 (stereo not given) | inactive: 12% | 
38 | CCC(=O)Nc1cccc(C2OC(=O)N(Cc3ccc(C)cc3)C2C(=O)Nc2ccc(F)cc2)c1 (stereo not given) |  | inconclusive: 63.1 µM [inhibitor, partial curve, poor fit]
39 | Cn1nccc1C(O)c1cc2n(n1)CCN(Cc1nc(C3CC3)no1)C2 (stereo not given) | inactive: -13.3% | 
40 | COc1ccc(CCN2Cc3cc(NC(=O)c4ccccc4)ccc3OCC2=O)cc1 |  | inconclusive: 39.8 µM [inhibitor, partial curve]
41 | Cc1ccc(C2Cn3nnc(C(=O)N4CCC(C(=O)NCc5cccnc5)CC4)c3CO2)cc1 (stereo not given) |  | inconclusive: 39.8 µM [inhibitor, partial curve]
42 | O=C1CC(c2ccccc2)N(C(=O)C2CC2)CCCN(C(=O)c2ccsc2)CCN1 (stereo not given) | inactive: -2.66% | 
43 | Cc1cn2nc(-c3nc(C4CCCN(C(=O)c5sccc5C)C4)no3)cc2c(=O)[nH]1 (stereo not given) |  | inconclusive: 50.1 µM [inhibitor, partial curve, poor fit]
44 | O=C1COc2ccc(-c3ccccc3)nc2CN1CCOc1ccccc1 | inactive: 11.9% [at 172 µM] | 

Row | Structure (SMILES) | activity change, negative = inhibition | Potency
45 | C[C@H](C(=O)N(C)CCC#N)C1CC[C@@]2(C)Cc3sc(NC(=O)C4CC4)nc3[C@@H](C)[C@@H]2[C@H]1O (stereo not given in full) |  | inconclusive: 39.8 µM [inhibitor, partial curve]
46 | COCCNC(=O)C1CCN(C(=O)c2nnn3c2COC(c2ccc(C)cc2)C3)CC1 (stereo not given) |  | active: 5.62 µM
47 | Cc1cc(C(=O)N2CCCC(C(=O)Nc3cccc(-c4cc5ccccc5[nH]4)c3)C2)nn1C (stereo not given) |  | inconclusive: 44.7 µM [inhibitor, partial curve]
48 | Cc1ccc(-c2noc([C@@H]3Cc4nc[nH]c4CN3C(=O)CCC(=O)O)n2)cc1 |  | inconclusive: 79.4 µM [inhibitor, partial curve]
49 | CCN1c2cc(C(=O)Nc3ccc4c(c3)OCCO4)ccc2C(=O)N2CCCCCC21 (stereo not given) |  | active: 11.2 µM
50 | COc1ccc(/C=C/c2ccc3c(c2)C(=O)N2CC[C@H](N)[C@H]2C(=O)N3)cc1 |  | active: 20 µM
51 | Clc1ccc(-c2nnc([C@H]3CCN(C4CCCCC4)C3)o2)cc1 |  | inconclusive: 79.4 µM [inhibitor, partial curve]
52 | Cc1cccc(NC(=O)N2CCCCC2c2noc(COCC3CC3)n2)c1 (stereo not given) |  | inconclusive: 89.1 µM [inhibitor, single point]
53 | COc1cc(OC)cc(C(=O)N2CCC(n3cc(-c4nc(-c5ccccc5)no4)nn3)C2)c1 (stereo not given) |  | inconclusive: 35.5 µM [inhibitor, partial curve]
54 | Cc1ccc(-c2nc(C(=O)NCc3ccccc3F)no2)cc1 |  | active: 22.4 µM
55 | Cc1ccc(C2=NC3(CCN(C(=O)c4n[nH]c5c4CCCC5)CC3)ON2)cc1 |  | inconclusive: 39.8 µM [inhibitor, partial curve]
56 | CCn1ccnc1CNc1ccc(-c2nc(-c3ccccc3C)no2)cn1 |  | inconclusive: 44.7 µM [inhibitor, partial curve]
57 | COc1ccc(-c2cc(-c3ccc(N4CCOCC4)nc3)cn3cncc23)cn1 |  | inconclusive: 89.1 µM [inhibitor, partial curve]
58 | COc1ccc(-n2nc(C)c([C@@H]3C=C[C@@H](NC(=O)NC4CCCCC4)C3)c2C)cc1 |  | inconclusive: 79.4 µM [inhibitor, partial curve, poor fit]
59 | O=C(NCc1ccccn1)C1CCN(C(=O)c2ncn3c2COC(c2ccc(F)cc2)C3)CC1 (stereo not given) |  | active: 35.5 µM
60 | C[C@@H](c1ccccc1)N1C(=O)[C@@H]2CN(C(=O)c3ccc(N(C)C)cc3)CCN2C1=O |  | inconclusive: 79.4 µM [inhibitor, partial curve, poor fit]
61 | Cc1ccc(CCNC(=O)c2nnn3c2COC(c2ccc(Cl)cc2)C3)cc1 (stereo not given) | inactive: -1.61% | 
62 | COc1ccc(-c2nnc([C@H]3CCN(C)C3)o2)cc1 |  | inconclusive: 100 µM [inhibitor, partial curve]
63 | COc1ccc(C(=O)N[C@H]2C[C@@H](c3nc(-c4cncnc4)no3)N(C)C2)cc1 |  | inconclusive: 112 µM [inhibitor, single point]
64 | CC1CCN(c2ccc(-c3cccc(N)c3)nn2)CC1 |  | active: 0.1 µM
65 | CCn1nccc1C(=O)NCc1cc(C)cc2c(C)c(-c3ccccc3)[nH]c12 |  | active: 15.8 µM
